Assay results published in the supplement of paper PMC4466236.
Over roughly 33,000 sequences, “E-score (dimensionless, -0.5 to 0.5)” has its median near -0.058; the highest 2% begin near 0.35. Some of the results follow.

Each sequence was assayed on MvaT (assay: PBM 8-mer E-score (mean of HK and ME arrays) (E-score (dimensionless, -0.5 to 0.5)); higher = stronger relative binding preference; most listed sequences are background and not binding sites).
In short: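 Full-length P. aeruginosa MvaT carrying an N-terminal glutathione S-transferase tag was tested by protein binding microarray following a previously described protocol. Two universal double-stranded 60-mer arrays, ME and HK, were used, each with a constant 25-mer primer region and a variable 35-mer region covering all 8-mers. The rank-based E-score is the mean of the two arrays, parsed with a custom script. Its range runs from -0.5 to 0.5 for each 8-mer.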
With ACCCATAG the “PBM 8-mer E-score” value was -0.212. With AAGACCTC the “PBM 8-mer E-score” value was -0.18. For AAGCGCTG, the “PBM 8-mer E-score” value was -0.235. In the case of CTCAAGGA, the “PBM 8-mer E-score” value was -0.151. With ATATAAGA the “PBM 8-mer E-score” value was 0.388. With ACCCGTTA the “PBM 8-mer E-score” value was 0.0361. AAATAAGA was tested, and the “PBM 8-mer E-score” value was 0.309. GCAGGACA was tested, and the “PBM 8-mer E-score” value was -0.193. CCTCGCTA was tested, and the “PBM 8-mer E-score” value was -0.179. In the case of CTGTTACA, the “PBM 8-mer E-score” value was 0.111. CAAGGAAC was tested, and the “PBM 8-mer E-score” value was -0.235. In the case of AGGCCAAA, the “PBM 8-mer E-score” value was -0.18. For CTGTCGAA, the “PBM 8-mer E-score” value was 0.0728. In the case of CAATGCTA, the “PBM 8-mer E-score” value was 0.00521. In the case of CGTTTGCA, the “PBM 8-mer E-score” value was 0.0116. In the case of CCGCTCGC, the “PBM 8-mer E-score” value was -0.22. With AGCTAACG the “PBM 8-mer E-score” value was -0.252. With AGTGATAA the “PBM 8-mer E-score” value was 0.167. AAGATTCG was tested, and the “PBM 8-mer E-score” value was 0.0317. For GCTTAAGA, the “PBM 8-mer E-score” value was 0.00809. In the case of AAAGCAAG, the “PBM 8-mer E-score” value was 0.123. With GACTGCGC the “PBM 8-mer E-score” value was -0.216. AACCCGGC was tested, and the “PBM 8-mer E-score” value was -0.237. In the case of AGTCGGGA, the “PBM 8-mer E-score” value was -0.0266. In the case of CGGATGAA, the “PBM 8-mer E-score” value was -0.105. With CTTTAAAC the “PBM 8-mer E-score” value was 0.229. For GCTCTTCA, the “PBM 8-mer E-score” value was -0.0413. For CATACTCA, the “PBM 8-mer E-score” value was 0.127. In the case of TAGGGGCA, the “PBM 8-mer E-score” value was -0.0405. For ATAAAACA, the “PBM 8-mer E-score” value was 0.317. ACCTCGTA was tested, and the “PBM 8-mer E-score” value was 0.0276. With CGCCACAC the “PBM 8-mer E-score” value was -0.0153. For CCATAGCA, the “PBM 8-mer E-score” value was -0.107. In the case of CCCTCTGC, the “PBM 8-mer E-score” value was -0.243. For CCGATACA, the “PBM 8-mer E-score” value was -0.0952. With CACAGTAG the “PBM 8-mer E-score” value was 0.0439. CCATCTTA was tested, and the “PBM 8-mer E-score” value was 0.0199. With CGAGGGAG the “PBM 8-mer E-score” value was -0.215. ACTAGTTG was tested, and the “PBM 8-mer E-score” value was 0.207. In the case of GTACAGAC, the “PBM 8-mer E-score” value was -0.106. With AATCGGTC the “PBM 8-mer E-score” value was 0.0705. In the case of AATGGCGG, the “PBM 8-mer E-score” value was -0.0222. For CTCAAACC, the “PBM 8-mer E-score” value was -0.113. ATGCTGCG was tested, and the “PBM 8-mer E-score” value was -0.00651. For GATAACGA, the “PBM 8-mer E-score” value was 0.0582. For GACTCGCA, the “PBM 8-mer E-score” value was -0.178. AAGTCTGG was tested, and the “PBM 8-mer E-score” value was -0.0269. In the case of ATCATATG, the “PBM 8-mer E-score” value was 0.241. For CAGCAGCA, the “PBM 8-mer E-score” value was 0.0184. AGTCTGCA was tested, and the “PBM 8-mer E-score” value was -0.0161. With CCCTCTAG the “PBM 8-mer E-score” value was -0.207. In the case of CACAATGA, the “PBM 8-mer E-score” value was 0.0252. For CAAAATTG, the “PBM 8-mer E-score” value was 0.265. For ATGTAGAG, the “PBM 8-mer E-score” value was 0.0839. With ATCCATCG the “PBM 8-mer E-score” value was -0.15. With GACAGGTC the “PBM 8-mer E-score” value was -0.275. GCAGGCGA was tested, and the “PBM 8-mer E-score” value was -0.235. For CGGACTTA, the “PBM 8-mer E-score” value was 0.00982. CAGCGTTA was tested, and the “PBM 8-mer E-score” value was 0.0962. TAAATAAA was tested, and the “PBM 8-mer E-score” value was 0.421. For AAGGGCGC, the “PBM 8-mer E-score” value was -0.103. With CCGGCCAC the “PBM 8-mer E-score” value was -0.343. In the case of AGGTATGC, the “PBM 8-mer E-score” value was -0.032. For ACTAAGTA, the “PBM 8-mer E-score” value was 0.243. With ATAGTGCG the “PBM 8-mer E-score” value was 0.253. For AACACGGA, the “PBM 8-mer E-score” value was 0.0166. With CATCTACC the “PBM 8-mer E-score” value was -0.0236. In the case of ACGCGGGG, the “PBM 8-mer E-score” value was -0.182. For CACTGCTA, the “PBM 8-mer E-score” value was -0.0266. CCCCTAGC was tested, and the “PBM 8-mer E-score” value was -0.343. GGCACGCA was tested, and the “PBM 8-mer E-score” value was -0.262. ACAGTAAC was tested, and the “PBM 8-mer E-score” value was 0.21. CAATCCTA was tested, and the “PBM 8-mer E-score” value was -0.065. In the case of AGTCGGGG, the “PBM 8-mer E-score” value was -0.0771. For AGACCTAG, the “PBM 8-mer E-score” value was -0.244. With AACTAGTG the “PBM 8-mer E-score” value was 0.19. CGTCCGAG was tested, and the “PBM 8-mer E-score” value was -0.195. In the case of GATAACCA, the “PBM 8-mer E-score” value was -0.0873. CGGTCTAC was tested, and the “PBM 8-mer E-score” value was -0.0579. In the case of AACAATCG, the “PBM 8-mer E-score” value was -0.015. For CGTTAGTA, the “PBM 8-mer E-score” value was 0.0889. For GGCTGACC, the “PBM 8-mer E-score” value was -0.252. With ATAGGCGA the “PBM 8-mer E-score” value was 0.0166. For TCGAGCAA, the “PBM 8-mer E-score” value was -0.119. In the case of AGGACATG, the “PBM 8-mer E-score” value was -0.147. CGACGAGC was tested, and the “PBM 8-mer E-score” value was -0.169. In the case of ACTGGGGC, the “PBM 8-mer E-score” value was -0.213. In the case of CCTTAAGC, the “PBM 8-mer E-score” value was -0.174. For TCGGAGAA, the “PBM 8-mer E-score” value was -0.118. For GGCGAATA, the “PBM 8-mer E-score” value was 0.0554. GCACTAAA was tested, and the “PBM 8-mer E-score” value was 0.113. For GTTAACGA, the “PBM 8-mer E-score” value was 0.183. For CAGCTGGA, the “PBM 8-mer E-score” value was -0.115. For ACTGGACG, the “PBM 8-mer E-score” value was -0.0771. In the case of ACCAGAGA, the “PBM 8-mer E-score” value was 0.081. AGATTGTC was tested, and the “PBM 8-mer E-score” value was -0.0364. For GGAGTCAA, the “PBM 8-mer E-score” value was -0.134. In the case of AAGGCTCC, the “PBM 8-mer E-score” value was -0.237. CCGACCCC was tested, and the “PBM 8-mer E-score” value was -0.381. CTTGTCTA was tested, and the “PBM 8-mer E-score” value was -0.00097. With AACGAACG the “PBM 8-mer E-score” value was -0.117. AAATACGT was tested, and the “PBM 8-mer E-score” value was 0.259. With CTCTGCGA the “PBM 8-mer E-score” value was -0.168. For CTCGTTAC, the “PBM 8-mer E-score” value was 0.056. With TATGTCGA the “PBM 8-mer E-score” value was 0.168. For CTTCTTGA, the “PBM 8-mer E-score” value was 0.0255. For CTTTACAA, the “PBM 8-mer E-score” value was 0.193. In the case of CTATCACC, the “PBM 8-mer E-score” value was -0.0182. With AGATCCCA the “PBM 8-mer E-score” value was -0.0741. In the case of AGACGCTC, the “PBM 8-mer E-score” value was -0.141.
